From PubChem BioAssay (NCATS)
Inconclusive means that the source gave no clear call. Such entries were picked first, then a sample of the others. For some assays here: Potencies of inconclusive entries are left out as doubtful fits. The source made the active and inactive calls. Unless noted, the call rests on the fitted dose curve; in most records, active means well fitted curve in the direction sought with a large enough effect; inconclusive means small, poorly fitted or top-dose-only effect, or another doubt; inactive means no such curve, though single readings can be large; an effect the other way counts as inactive or inconclusive.

Columns and labels:
[1] = molecular target: Rap guanine nucleotide exchange factor 3 (Homo sapiens) (UniProt O95398); assay: Confirmatory qHTS for antagonist of cAMP-regulated guanine nucleotide exchange factor 3 (EPAC1) (AID 1645880); conditions: EPAC1 Rap1B-BODIPY-GDP exchange, fluorescence; activity, negative = inhibition: at 115 µM (top of the series); further: nearly all actives have a fitted effect of over 55% in size;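 on activity, negative = inhibition: plate controls were DMSO only for no effect and full effect of the ATA control for full effect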
UniProt O95398, sequence (O95398 whole entry, looked up): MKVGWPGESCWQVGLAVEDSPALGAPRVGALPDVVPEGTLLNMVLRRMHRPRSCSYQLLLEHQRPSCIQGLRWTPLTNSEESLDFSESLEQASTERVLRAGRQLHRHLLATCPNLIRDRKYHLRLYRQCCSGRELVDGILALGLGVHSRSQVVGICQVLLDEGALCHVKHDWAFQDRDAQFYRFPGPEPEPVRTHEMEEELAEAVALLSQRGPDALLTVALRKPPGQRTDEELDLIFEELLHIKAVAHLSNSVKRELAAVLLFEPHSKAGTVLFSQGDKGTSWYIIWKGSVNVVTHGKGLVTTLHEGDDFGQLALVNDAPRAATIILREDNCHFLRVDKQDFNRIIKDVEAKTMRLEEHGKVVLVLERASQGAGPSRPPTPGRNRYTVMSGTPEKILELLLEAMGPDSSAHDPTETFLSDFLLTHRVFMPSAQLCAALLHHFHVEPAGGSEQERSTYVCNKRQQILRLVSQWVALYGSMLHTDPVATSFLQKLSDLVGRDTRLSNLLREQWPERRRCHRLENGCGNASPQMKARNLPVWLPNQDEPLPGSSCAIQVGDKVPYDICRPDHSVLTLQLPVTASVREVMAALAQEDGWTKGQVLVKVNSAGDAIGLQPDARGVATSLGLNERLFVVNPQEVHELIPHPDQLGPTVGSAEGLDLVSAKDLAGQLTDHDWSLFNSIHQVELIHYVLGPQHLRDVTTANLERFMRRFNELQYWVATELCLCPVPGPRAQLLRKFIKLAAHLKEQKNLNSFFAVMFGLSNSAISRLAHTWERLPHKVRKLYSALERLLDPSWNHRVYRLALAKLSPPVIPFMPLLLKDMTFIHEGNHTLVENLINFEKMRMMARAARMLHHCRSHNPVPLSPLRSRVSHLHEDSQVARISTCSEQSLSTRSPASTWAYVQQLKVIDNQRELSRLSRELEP
How it was run: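 Nucleotide exchange uses 100 nM EPAC1, 250 nM RAP1B-BODIPY-GDP and 50 uM GDP, with compounds in a concentration-titration series. After 5 min at room temperature, fluorescence (480 nm ex/540 nm em) is read every 5 min for 30 min. Data are normalized to control ATA and DMSO.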

[2] = molecular target: Rap guanine nucleotide exchange factor 3 (Homo sapiens) (UniProt O95398); assay: Counterscreen qHTS for agonist of cAMP-regulated guanine nucleotide exchange factor 3 (EPAC1) (AID 1645889); conditions: EPAC1 Rap1B-BODIPY-GDP exchange, fluorescence; activation: at 154 µM (top of the series) unless noted; further: nearly all actives have a fitted effect of over 40% in size; on activation: % of control where 0% means no effect
How it was run: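 Rap1B–BODIPY-GDP (250 nM) with 50 uM GDP; compounds pin-transferred to 9.74 nM–152 uM final (activator) or from 7.32 nM upwards (inhibitor). Fluorescence Ex/Em 480/540 nm read at 5 and 30 min, then after adding cAMP or buffer, at room temperature.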

[3] = molecular target: DNA repair nuclease/redox regulator APEX1 (Homo sapiens) (UniProt P27695); assay: Confirmation qHTS Assay for Inhibitors of the Human Apurinic/apyrimidinic Endonuclease 1 (APE1) (AID 2572); further: nearly all actives have a fitted effect of over 30% in size
UniProt P27695, sequence (P27695 whole entry, looked up): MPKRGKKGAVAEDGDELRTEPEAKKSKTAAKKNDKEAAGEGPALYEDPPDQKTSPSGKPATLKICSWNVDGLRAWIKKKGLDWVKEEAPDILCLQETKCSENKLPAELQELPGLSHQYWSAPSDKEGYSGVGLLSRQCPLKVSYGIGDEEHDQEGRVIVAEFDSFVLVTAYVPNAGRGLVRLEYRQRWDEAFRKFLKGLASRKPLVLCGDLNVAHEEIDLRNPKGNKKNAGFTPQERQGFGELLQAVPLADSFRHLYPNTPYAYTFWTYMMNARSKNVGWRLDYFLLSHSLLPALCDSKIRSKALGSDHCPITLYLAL
How it was run: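 Enzyme preincubated 15 min at room temperature with compound; reaction started with 50 nM final double-stranded THF abasic-site substrate (5'-TAMRA, 3'-BHQ-2). Fluorescence read kinetically (525/598 nm); third-minus-first read difference gives reaction progress.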

[4] = molecular target: Cytochrome P450 1A2 (Homo sapiens) (UniProt P05177); assay: p450-cyp1a2 (AID 410; calls by dose curve)
UniProt P05177, sequence (P05177 whole entry, looked up): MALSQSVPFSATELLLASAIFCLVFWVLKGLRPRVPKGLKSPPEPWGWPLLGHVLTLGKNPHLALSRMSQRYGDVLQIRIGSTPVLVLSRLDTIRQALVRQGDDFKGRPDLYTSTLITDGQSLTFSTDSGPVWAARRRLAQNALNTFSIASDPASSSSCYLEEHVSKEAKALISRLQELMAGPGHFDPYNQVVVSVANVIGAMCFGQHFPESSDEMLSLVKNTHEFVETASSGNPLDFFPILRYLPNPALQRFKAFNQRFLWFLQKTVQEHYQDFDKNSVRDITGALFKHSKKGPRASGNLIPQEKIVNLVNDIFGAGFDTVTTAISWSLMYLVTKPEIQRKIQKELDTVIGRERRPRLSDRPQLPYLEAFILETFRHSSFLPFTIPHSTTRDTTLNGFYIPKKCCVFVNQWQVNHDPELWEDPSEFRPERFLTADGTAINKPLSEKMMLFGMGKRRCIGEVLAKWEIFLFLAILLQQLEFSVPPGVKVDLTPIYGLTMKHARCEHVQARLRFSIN
How it was run: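 Luminescent readout of luciferin formed from Luciferin-ME by human CYP1A2; data normalized against complete inhibition by 57 uM furafylline. Enzyme 20nM, substrate 100uM at Km, 100mM KPO4 buffer, 60 min reaction at room temperature.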

[5] = molecular target: Cytochrome P450 2D6 (Homo sapiens) (UniProt P10635); assay: qHTS Assay for Inhibitors and Substrates of Cytochrome P450 2D6 (AID 891);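 further: luciferin methyl ether substrate demethylated by CYP2D6 with NADPH regeneration; nearly all actives have a fitted effect of over 60% in size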
UniProt P10635, sequence (P10635 whole entry, looked up): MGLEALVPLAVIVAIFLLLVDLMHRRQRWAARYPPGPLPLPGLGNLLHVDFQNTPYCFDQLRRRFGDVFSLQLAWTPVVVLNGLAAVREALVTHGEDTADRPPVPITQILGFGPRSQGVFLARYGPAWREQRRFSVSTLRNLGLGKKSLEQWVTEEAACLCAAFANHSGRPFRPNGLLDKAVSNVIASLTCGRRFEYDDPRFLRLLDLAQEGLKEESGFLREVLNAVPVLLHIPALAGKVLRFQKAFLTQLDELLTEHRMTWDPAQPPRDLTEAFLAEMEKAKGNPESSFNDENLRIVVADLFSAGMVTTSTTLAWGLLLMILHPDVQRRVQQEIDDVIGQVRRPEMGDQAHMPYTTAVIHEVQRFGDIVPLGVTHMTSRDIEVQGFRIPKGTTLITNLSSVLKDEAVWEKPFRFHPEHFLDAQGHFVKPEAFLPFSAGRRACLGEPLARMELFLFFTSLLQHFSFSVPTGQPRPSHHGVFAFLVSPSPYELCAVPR
How it was run: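 Human CYP2D6 (5 nM) with 30 uM Luciferin-ME EGE (at Km) in 100 mM KPO4, compound preincubated 10 min, then NADPH regeneration system for 60 min at room temperature. Luciferin read by luminescence; normalized to 1.43 uM quinidine.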

[6] = molecular target: Cytochrome P450 2C19 (Homo sapiens) (UniProt P33261); assay: qHTS Assay for Inhibitors and Substrates of Cytochrome P450 2C19 (AID 899); further: nearly all actives have a fitted effect of over 60% in size
How it was run: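 5 nM human CYP2C19 with 10uM Luciferin-H EGE (at KM) in 50mM KPO4, compound preincubated 10 min at 37C, then NADPH regeneration for 60 min at 37C. Luciferin read by luminescence after detection reagent; normalized to 57uM ketoconazole as full inhibition.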

[7] = molecular target: Tumor susceptibility gene 101 protein (Homo sapiens) (UniProt Q99816); assay: qHTS Assay for Iinhibitors of HIV-1 Budding by Blocking the Interaction of PTAP/TSG101: Hit Validation (AID 651600); further: nearly all actives have a fitted effect of over 70% in size
How it was run: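 Fluorescence polarization binding assay: Tsg101 binding domain (10 uM) mixed with compounds and FITC-labeled PTAP peptide (50 nM) in HEPES pH 7.5, 0.15 M NaCl, 0.01% Tween 20, EDTA, TCEP; 20 min at r.t.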

[8] = molecular target: DNA polymerase eta (Homo sapiens) (UniProt Q9Y253); assay: qHTS for Inhibitors of Polymerase Eta: Confirmatory Assay for Cherry-picked Compounds (AID 720502); conditions: Pol eta primer extension, TAMRA/BHQ fluorescence, 10 min
UniProt Q9Y253, sequence (Q9Y253 whole entry, looked up): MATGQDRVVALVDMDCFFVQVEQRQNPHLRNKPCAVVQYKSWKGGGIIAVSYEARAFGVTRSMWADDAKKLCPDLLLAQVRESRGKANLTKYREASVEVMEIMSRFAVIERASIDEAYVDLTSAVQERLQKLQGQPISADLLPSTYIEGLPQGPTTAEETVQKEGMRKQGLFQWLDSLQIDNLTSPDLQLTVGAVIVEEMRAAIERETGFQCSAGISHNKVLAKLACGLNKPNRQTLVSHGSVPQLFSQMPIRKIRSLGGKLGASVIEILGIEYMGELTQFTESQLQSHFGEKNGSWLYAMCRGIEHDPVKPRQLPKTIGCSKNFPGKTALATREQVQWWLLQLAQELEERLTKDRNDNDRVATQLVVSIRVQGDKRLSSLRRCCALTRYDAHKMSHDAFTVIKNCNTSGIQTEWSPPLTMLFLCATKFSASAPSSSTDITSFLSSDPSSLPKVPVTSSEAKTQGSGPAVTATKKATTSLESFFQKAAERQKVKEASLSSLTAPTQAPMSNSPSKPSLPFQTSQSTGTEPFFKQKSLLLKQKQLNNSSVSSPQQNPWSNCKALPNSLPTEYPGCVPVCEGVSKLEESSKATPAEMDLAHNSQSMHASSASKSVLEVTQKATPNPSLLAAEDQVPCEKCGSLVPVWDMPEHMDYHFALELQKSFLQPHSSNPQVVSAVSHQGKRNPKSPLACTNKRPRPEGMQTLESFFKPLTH
How it was run: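 Human Pol eta at 10 nM was preincubated with compound for 15 min at room temperature. Reaction was started with TAMRA/BHQ-2-labelled primer-template substrate (50 nM final), with fluorescence read at 0 and 10 min (ex 525, em 598 nm).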

[9] = molecular target: Tyrosyl-DNA phosphodiesterase 1 (Homo sapiens) (UniProt Q9NUW8); assay: Confirmation Assay for Inhibitors of Tyrosyl-DNA Phosphodiesterase (TDP1) (AID 489007); conditions: recombinant human TDP1 enzymatic activity, dose-response; further: nearly all actives have a fitted effect of over 40% in size
UniProt Q9NUW8, sequence (Q9NUW8 whole entry, looked up): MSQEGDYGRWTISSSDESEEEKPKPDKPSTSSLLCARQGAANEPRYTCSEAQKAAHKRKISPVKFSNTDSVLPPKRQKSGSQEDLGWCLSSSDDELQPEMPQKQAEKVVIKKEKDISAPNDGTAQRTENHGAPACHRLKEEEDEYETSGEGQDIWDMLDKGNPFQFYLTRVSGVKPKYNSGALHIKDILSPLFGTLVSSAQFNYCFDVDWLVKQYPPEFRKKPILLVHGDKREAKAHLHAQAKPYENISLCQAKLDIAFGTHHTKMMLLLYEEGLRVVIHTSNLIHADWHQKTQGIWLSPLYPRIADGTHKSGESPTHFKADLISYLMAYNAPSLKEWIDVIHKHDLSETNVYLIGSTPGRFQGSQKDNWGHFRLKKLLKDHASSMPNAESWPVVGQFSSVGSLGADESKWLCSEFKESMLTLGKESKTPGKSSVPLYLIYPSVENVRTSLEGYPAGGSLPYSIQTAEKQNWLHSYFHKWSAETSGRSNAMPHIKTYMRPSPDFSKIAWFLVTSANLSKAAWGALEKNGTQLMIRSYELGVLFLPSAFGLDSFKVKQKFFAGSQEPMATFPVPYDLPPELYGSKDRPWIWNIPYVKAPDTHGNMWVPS
How it was run: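 Tdp1 1 nM + cpd, 15 min RT; add biotin/phosphotyrosine-FITC oligo 15 nM, 5 min RT; add AS donor/acceptor beads 10 ug/ml, 10 min RT; read AlphaScreen. No-enzyme wells = max signal.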

[10] = molecular target: Vitamin D3 receptor (Homo sapiens) (UniProt P11473); assay: qHTS for Inhibitors of the vitamin D receptor (VDR): Hit Validation in Primary Screen (AID 602199); conditions: VDR-coactivator inhibition assay, qHTS confirmation
UniProt P11473, sequence (P11473 whole entry, looked up, the tested form may be a part): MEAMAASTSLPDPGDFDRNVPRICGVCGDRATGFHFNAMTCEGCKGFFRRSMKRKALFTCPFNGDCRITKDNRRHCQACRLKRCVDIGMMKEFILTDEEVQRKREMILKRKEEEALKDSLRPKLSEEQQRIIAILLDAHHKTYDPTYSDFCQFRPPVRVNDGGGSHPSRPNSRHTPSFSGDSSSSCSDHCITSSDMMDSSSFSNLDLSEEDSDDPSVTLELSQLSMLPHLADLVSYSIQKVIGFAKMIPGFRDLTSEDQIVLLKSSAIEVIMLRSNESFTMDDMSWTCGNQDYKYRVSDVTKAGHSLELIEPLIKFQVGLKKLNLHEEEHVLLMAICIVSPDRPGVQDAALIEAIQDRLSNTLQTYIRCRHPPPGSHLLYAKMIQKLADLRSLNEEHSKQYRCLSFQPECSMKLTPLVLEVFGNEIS
How it was run: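 Fluorescence polarization (Ex 620/Em 688 nm) of Alexa 647-SRC2-3 peptide with 800 nM VDR and 5 uM LG19078. Compounds at several concentrations, 2 h at room temperature.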

[11] = qHTS for Inhibitors of the vitamin D receptor (VDR): Hit Validation using a Texas Red Assay (AID 602201)
How it was run: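 Fluorescence polarization with 1.5 uM VDR-LBD, LG19078 and 7 nM Texas Red (final). After 2 hours at ambient temperature, read at Ex 595 nm/Em 615 nm.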

[12] = molecular target: Vitamin D3 receptor (Homo sapiens) (UniProt P11473); assay: qHTS for Inhibitors of the vitamin D receptor (VDR): Hit Validation using a Beta-Lactamase Assay (AID 602202)
How it was run: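 Stably transfected HEK293 cells expressing VDR-GAL4 DNA-binding domain fusion with UAS-driven beta-lactamase reporter, activated by agonist LG190178; compounds incubated 18 h, then FRET beta-lactam substrate 2 h; cleaved substrate read at 447 nm emission.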

[13] = qHTS for Inhibitors of the vitamin D receptor (VDR): Hit Validation using a Cytotoxicity Assay (AID 602204);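 further: cells co-treated with VDR agonist LG190178 at 300 nM; nearly all actives have a fitted effect of over 75% in size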
How it was run: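 Each well held 20,000 cells, incubated 4 h before compounds went in. An 18 h treatment preceded addition of ATP-sensing luminescent reagent, with reading after 30 min; cycloheximide and DMSO controlled the window.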

[14] = molecular target: RecQ-like DNA helicase BLM (Homo sapiens) (UniProt P54132); assay: qHTS for Inhibitors of WRN Helicase: BLM Helicase Counterscreen for WRN Inhibitors (AID 720503); further: nearly all actives have a fitted effect of over 60% in size
How it was run: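 Reactions were started with 100 nM DNA substrate and 2 mM ATP (final) after compound and 1 nM BLM stood 15 min at room temperature in Tris-HCl pH 8.0 buffer with NaCl, MgCl2, DTT and Tween-20. Two red-fluorescence reads 15 min apart were normalized against DMSO and no-enzyme wells.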

[15] = qHTS Assay for the Inhibitors of L3MBTL1: Hit Validationin AlphaScreen Counterscreen (AID 602224)
How it was run: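 Bead-bridging control using 1 nM b-His6 linking streptavidin donor and nickel chelate acceptor beads (10 ug/mL each, final). Compound exposure 15 min, then beads, 30 min dark incubation at room temperature before AlphaScreen reading.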

[16] = molecular target: Fructose-bisphosphate aldolase (Giardia intestinalis (strain ATCC 50803 / WB clone C6)) (UniProt A8B2U2); assay: qHTS Assay for Inhibitors of Fructose-1,6-bisphosphate Aldolase from Giardia Lamblia: Primary screen confirmation (AID 2787); further: nearly all actives have a fitted effect of over 45% in size
How it was run: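 Confirmation of primary hits by qHTS up to 57.5 uM final compound. Enzyme at 40 nM with 30 uM ZnCl2, 10 min RT pre-incubation, then substrate/coupling/resorufin-forming detection mix for 20 min before fluorescence read at 525/598 nm.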

[17] = molecular target: DNA polymerase iota (Homo sapiens) (UniProt Q9UNA4); assay: qHTS for Inhibitors of Polymerase Iota: Confirmatory Assay for Cherry-picked Compounds (AID 720496); conditions: Pol iota primer extension, TAMRA/BHQ fluorescence
UniProt Q9UNA4, sequence (Q9UNA4 whole entry, looked up): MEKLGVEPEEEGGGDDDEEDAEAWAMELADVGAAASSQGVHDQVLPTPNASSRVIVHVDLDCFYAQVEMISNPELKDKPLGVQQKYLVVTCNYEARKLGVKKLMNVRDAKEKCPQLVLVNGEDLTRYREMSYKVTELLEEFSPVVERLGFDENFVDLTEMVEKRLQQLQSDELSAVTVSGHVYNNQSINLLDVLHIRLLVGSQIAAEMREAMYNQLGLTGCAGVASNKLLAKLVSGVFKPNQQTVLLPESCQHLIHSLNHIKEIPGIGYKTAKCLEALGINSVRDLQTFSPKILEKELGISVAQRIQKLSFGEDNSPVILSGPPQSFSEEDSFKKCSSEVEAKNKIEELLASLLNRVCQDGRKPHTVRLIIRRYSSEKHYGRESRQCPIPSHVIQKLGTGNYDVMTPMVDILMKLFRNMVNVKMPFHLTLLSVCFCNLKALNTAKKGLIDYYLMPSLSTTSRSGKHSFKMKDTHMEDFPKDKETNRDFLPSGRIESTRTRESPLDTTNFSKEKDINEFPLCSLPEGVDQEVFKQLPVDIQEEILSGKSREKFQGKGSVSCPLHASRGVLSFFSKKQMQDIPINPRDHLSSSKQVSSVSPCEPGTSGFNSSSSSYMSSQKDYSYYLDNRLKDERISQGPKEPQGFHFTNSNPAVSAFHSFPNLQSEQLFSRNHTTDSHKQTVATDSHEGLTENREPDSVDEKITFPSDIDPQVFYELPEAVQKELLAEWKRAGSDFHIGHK
How it was run: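 Step 1: 10 nM Pol iota with compound, 15 min, room temperature. Step 2: 50 nM final quenched DNA substrate added. Step 3: fluorescence (ex 525, em 598 nm) read at 0 and after 10 min.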
Potency means the concentration at half of the fitted maximal effect; tags describe the fitted curve by direction and shape.

Compound: CC(SC1=NCCN1S(=O)(=O)c1ccc(F)cc1)c1ccccc1 (stereo unspecified)
- Potency [1]: inactive
- Potency [2]: inconclusive [activator, full curve, poor fit]

Compound: Cc1ccc(S(=O)(=O)N2[C@@H](c3ccccc3)C(C(=O)O)=CC[C@H]2c2ccc(C(C)C)cc2)cc1
- Potency [1]: active: 75.7 µM
- Potency [2]: inactive

Compound: COc1ccc(/C=C/C(=O)Oc2ccc(C)c(C)c2)cc1OC
- Potency [1]: inconclusive [inhibitor, partial curve]
- activation [2]: inconclusive: 55.3% [activator]

Compound: Cn1c(/N=C/c2c(O)ccc3ccccc23)nc2ccccc21
- Potency [1]: inconclusive [inhibitor, partial curve]
- Potency [2]: inactive

Compound: COc1cccc(C(=O)Nc2nnc(-c3ccccc3)s2)c1OC
- Potency [1]: inconclusive [inhibitor, partial curve, poor fit]
- activation [2]: inconclusive: 29.6% [activator]

Compound: COc1cc(NC(=O)c2cnc(N)s2)cc(C(=O)Nc2cccc(C(F)(F)F)c2)c1
- Potency [1]: active: 12.6 µM
- activation [2]: inactive: 16.6% [at 30.8 µM]

Compound: O=C(O)C1CC(c2ccc(F)cc2)=NO1 (stereo unspecified)
- Potency [1]: inconclusive [inhibitor, full curve]
- activation [2]: inactive: 21.8% [at 30.8 µM]

Compound: CCc1nc2c(OCc3ccc(C(F)(F)F)cc3)cccn2c1N(C)C(=O)CC(C)C
- Potency [1]: inconclusive [inhibitor, partial curve]
- Potency [2]: inactive

Compound: COc1ccc2c(c1)cc(C(=O)N/N=C/c1c(O)c(C(=O)O)cc3ccccc13)n2C
- Potency [1]: active: 67.5 µM
- Potency [2]: inconclusive [activator, partial curve, poor fit]

Compound: COc1ccc(-c2cnnc(N/N=C/c3ccc(O)c(O)c3)n2)cc1
- Potency [3]: inactive
- Potency [1]: inconclusive [inhibitor, partial curve, poor fit]
- Potency [2]: inactive

Compound: O=C(c1ccccc1F)n1c2c(c3ccccc31)CCCC2
- Potency [1]: inactive
- Potency [2]: inconclusive [activator, partial curve, poor fit]

Compound: O=C(COc1ccc(Br)cc1Cl)c1ccc[nH]1
- Potency [1]: inactive
- activation [2]: inconclusive: 22.2% [activator]

Compound: O=C(N/N=C/c1ccc(-c2ccc(Cl)c(C(=O)O)c2)o1)c1cc2c(ccc3ccccc32)o1
- Potency [1]: active: 12.6 µM
- activation [2]: inactive: 12% [at 30.8 µM]

Compound: NS(=O)(=O)c1ccc(N=Nc2c[nH]c(=O)c(O)c2)cc1
- Potency [4]: inconclusive [decreasing]
- Potency [5]: inconclusive [inhibitor, single point]
- Potency [6]: inconclusive [inhibitor, single point]
- Potency [7]: active: 18.3 µM
- Potency [8]: active: 53.6 µM
- Potency [1]: active: 42.6 µM
- Potency [2]: inactive

Compound: O=C(NNC(=O)c1cc2cc(Br)ccc2oc1=O)c1ccc(O)cc1O
- Potency [9]: active: 56.2 µM
- Potency [1]: inconclusive [inhibitor, full curve]
- activation [2]: inconclusive: 32% [activator]

Compound: O=C(O)CN1C(=O)/C(=C\C(Br)=C\c2ccccc2)SC1=S
- Potency [10]: inconclusive [inhibitor, full curve]
- Potency [11]: inconclusive [inhibitor, full curve]
- Potency [12]: inconclusive [inhibitor, single point]
- Potency [13]: inconclusive [rising, full curve, poor fit]
- Potency [14]: active: 21.5 µM
- Potency [1]: inconclusive [inhibitor, full curve]
- activation [2]: inactive: 8.49% [at 30.8 µM]

Compound: COc1cc(/C=C2/NC(=O)NC2=O)cc(Br)c1OCc1ccc(C(=O)O)cc1
- Potency [3]: inconclusive [inhibitor, partial curve, poor fit]
- Potency [1]: inconclusive [inhibitor, partial curve]
- activation [2]: inactive: 11.1% [at 30.8 µM]

Compound: O=C(CSc1nc(-c2ccccc2)nc2c1Cc1ccccc1O2)Nc1ccc(C(=O)O)cc1
- Potency [9]: inconclusive [inhibitor, partial curve]
- Potency [15]: inconclusive [inhibitor, partial curve, poor fit]
- Potency [8]: inconclusive [inhibitor, single point]
- Potency [1]: inconclusive [inhibitor, full curve]
- Potency [2]: inconclusive [activator, full curve, poor fit]

Compound: Cn1c2ccccc2c2cc(/C=N/NC(=O)c3cc(O)ccc3O)ccc21
- Potency [16]: inconclusive [inhibitor, partial curve]
- Potency [17]: inconclusive [inhibitor, partial curve]
- Potency [1]: active: 25.1 µM
- activation [2]: inactive: 29.4% [at 30.8 µM]
